According to ChEMBL document CHEMBL4888484, “Replenishing the malaria drug discovery pipeline: Screening and hit evaluation of the MMV Hit Generation Library 1 (HGL1) against asexual blood stage Plasmodium falciparum ,using a nano luciferase reporter read-out” (2022):
Among all 150,000 compounds or so, about 540 (0.36%) showed an effect of 50% or more. The list shows a part of the results.

test system: Plasmodium falciparum; assay: Primary screen in NF54 nanoGlo assay, in single point, at 2uM, 72h; a lower Z score goes with more inhibition; type: functional, Erythrocyte; details: timepoint 72 hour

SMILES	% Inhibition	Z score
COc1ccccc1[C@H]1Oc2ccccc2-n2c(-c3ccc(C)cc3)c3c(=O)n(C)c(=O)n(C)c3c21	2%	-0.34
O=C(NCC1CCN(C(=O)[C@@H]2CCc3ccccc32)CC1)c1ccsc1	-7%	1.14
c1ccc(-c2csc(N3C[C@@H]4[C@H](C3)[C@H]3CC[C@@H]4O3)n2)cc1	-5%	0.94
CC(C)C(C)S(=O)(=O)C(C)c1ncc(-c2ccccc2)o1 (stereo unspecified)	-7%	0.94
Cc1cc(C(=O)N2C[C@@H]3CC[C@H]2CN(Cc2cccnc2)C3)ccc1Cl	2%	-0.46
Cc1nn(C)c(C)c1S(=O)(=O)N[C@H]1CCCN(C2CCCCCC2)C1	-21%	1.94
COCc1c(C(=O)N(C)[C@@H](C)c2nc(C)cs2)cnn1-c1nccc(-c2ccco2)n1	-13%	1.81
C[C@H]1CN(C(=O)CN2C(=O)c3ccccc3C2=O)CCO1	-3%	0.37
CCOC(=O)c1cc2n(n1)C[C@@](C)(C(=O)NCCC(C)C)N(c1cc(C)cc(C)c1)C2=O	-3%	0.37
CN1C(=O)c2ccccc2O[C@H]2CN(C(=O)NCc3ccccc3)C[C@H]21	-11%	1.42
OC[C@H]1CCCN(c2nc(N3CCCC3)nc(N3CCCC3)n2)C1	-11%	1.49
CN(C)CCNc1nc(-c2ccc(C(F)(F)F)cc2)c2c(N)n(C)nc2n1	22%	-2.12
COC(=O)c1c(-c2cccc(Cl)c2)noc1NCc1cccc(Cl)c1	-1%	0.25
O=C(Cc1cccnc1)N[C@@H]1[C@H]2CCO[C@H]2[C@H]1Cc1ccccc1	12%	-1.64
Cc1cccc2[nH]c(C3CCN(Cc4cnc(N(C)C)s4)CC3)nc12	6%	-0.79
CC[C@@H]1CN(C(=O)c2cccc(NC(=O)c3ccco3)c2C)CC[C@]1(C)O	-3%	0.4
CCOC1CC(O)(CNC(=O)Cc2c(F)cccc2F)C1(C)C (stereo unspecified)	-2%	0.19
CC[C@]1(CO)CCCN(c2nccn3nc(C)cc23)C1	0%	0.04
COCc1noc(-c2cccc3c2ccn3C)n1	-5%	0.5
O=S(=O)(Cc1ccccc1)Nc1nnc[nH]1	29%	-4.17
CC(C)C(=O)NCc1csc(C2CCN(C(=O)c3ccco3)CC2)n1	-18%	2.31

SMILES	% Inhibition	Z score
C[C@@H]1Oc2ccc(NS(=O)(=O)c3ccc(F)cc3)cc2NC1=O	-4%	0.79
O=C(Cn1cnc2ccccc2c1=O)N1C[C@@H]2C[C@@H](C1)C1CCCC(=O)N1C2 (stereo partly specified)	1%	-0.11
O=C(NCc1cccs1)[C@H](Cc1ccccc1)N1CCCOC1=O	1%	-0.14
CCCCn1c(C(=O)NCc2ccccc2)cc2cc(NC(=O)CC)ccc21	1%	-0.15
C[C@H](NCc1ccccc1)C1CCCc2ccccc21 (stereo partly specified)	1%	-0.11
O=C(NCc1cccnc1-c1ccccc1)c1ccc(Br)o1	-5%	0.64
COC(=O)C1CC23CCCN4CCC5(c6ccccc6NC15C2C)C43 (stereo unspecified)	-11%	1.01
CN(C)Cc1nnc([C@H]2C[C@@H](NC(=O)c3n[nH]c4c3CCCC4)C2)n1C	-14%	1.38
Cn1cc(CN2CCC(C(=O)N3CCCC3)CC2)c(-c2ccccc2F)n1	-8%	1.02
CCC(NC(=O)NC(C)C(=O)N(C)C)c1ccc(F)cc1F (stereo unspecified)	0%	0.03
COc1ccccc1C(=O)N1CCN(c2nc(Cc3ccc(C)cc3)nc3c2c(C)nn3-c2ccccc2)CC1	-24%	2.13
O=C(Cn1cc(Br)cn1)N1CCCc2ccccc21	-9%	1.2
Cc1ccc(OCC(=O)N[C@H]2CN(C(CO)CO)C[C@@H]2C(C)C)cc1	3%	-0.38
CC1CCC(C(C)C)C(OC(=O)COC(=O)c2ccncc2)C1 (stereo unspecified)	-10%	1.31
O=C(NCCCC1CCCCO1)NC1COc2cc(F)cc(F)c21 (stereo unspecified)	-12%	1.21
O=C(CCS(=O)(=O)c1ccc(Cl)cc1)Nc1nnc(-c2cc(Cl)ccc2Cl)o1	-12%	2.36
CCc1nnc(CN(c2ccc(Cl)cc2F)S(C)(=O)=O)s1	-4%	0.37
O=S(=O)(NC1CCCCNC1)[C@H]1C[C@@H]1c1ccccc1 (stereo partly specified)	-8%	1.29
Cn1cc(C(=O)Nc2cc(F)ccc2F)c(=O)[nH]c1=O	-5%	0.48
CS(=O)(=O)c1ccc(NCC(F)(F)CN)c(F)c1	-5%	0.69
Cn1c(-c2ncccc2C(=O)N2CCCC2)cc2ccccc21	9%	-1.2

SMILES	% Inhibition	Z score
O=C(CCCn1ccnc1)Nc1cccc(Cl)c1O	-4%	0.71
Cc1c(-c2nn(-c3ccccc3)c(-c3cnn(C)c3C)c2Cl)cnn1C	39%	-4.45
CC(C)O[C@@]1(Cn2nnnc2C=Cc2ccccc2)CCOC1	15%	-1.9
CC(C)CN1C[C@@H](NCc2ccc(F)c(F)c2)C[C@H]1C(=O)NCCc1ccccc1F	-12%	1.44
COc1cc(OC)cc(C(=O)N2c3ccccc3[C@](C)(c3ccccc3)CC2(C)C)c1	5%	-0.65
C[C@@H]1Oc2ccc(NC(=O)NCc3ccccc3)cc2NC1=O	-4%	0.72
CO[C@H]1CCOC[C@@H]1NC(=O)Nc1ccncc1N(C)C	-9%	1.53
CC(C)c1nnc(CNC(C)C2CCCO2)n1C (stereo unspecified)	0%	-0.06
CCN(CC)[C@@]1(c2nnnn2C2CCCC2)CCN(C(=O)c2cccnc2)C1	8%	-1.04
CCS(=O)(=O)NC(C)C1CC2CCC1C2 (stereo unspecified)	-6%	0.78
CCc1ccccc1C(=O)N1C[C@@H](CN2CCCN(C)CC2)[C@@H](CO)C1	-5%	0.46
Cc1nc(-n2nc(C)c(Cc3ccccc3)c2C)sc1C(=O)N1CCCCC1	-1%	0.12
c1ccc(COCc2cn(C[C@H]3CNCCO3)nn2)cc1	2%	-0.41
Cc1ccc(N(C2CCN(Cc3cccs3)CC2)S(=O)(=O)c2ccc(F)cc2)cc1F	-4%	0.35
c1ccc(CNc2nc(N3CCCC3)c3nn[nH]c3n2)cc1	-17%	2.57
CCCc1nc(C)c(C(=O)N2CC(OC)CC2c2nc(-c3cccnc3)c[nH]2)s1 (stereo unspecified)	-11%	0.98
Cn1nnc2c(N3CCN(S(=O)(=O)c4ccc5ccccc5c4)CC3)ncnc21	-7%	1.08
Cc1cc(NC(=O)C2CCC(C3CC3)CC2)n2ncnc2n1 (stereo unspecified)	-7%	0.83
CN(c1cccnn1)C(=O)[C@H]1CC[C@H](C2CCC2)CC1	-10%	1.99
CCc1oc(C(=O)NC(C)(C)CO)cc1C	-9%	1.21
Cc1c(C(=O)Nc2ccccc2NC2CCCCC2)oc2ccccc12	-2%	0.39

SMILES	% Inhibition	Z score
CC(C)N1C[C@@H](c2nc(-c3ccsc3)c[nH]2)CC1=O	-1%	0.21
COCCN1C[C@]2(CCCN(C(=O)c3cn[nH]c3)C2)CCC1=O	-2%	0.4
O=C(NCCn1ccnn1)N[C@H]1CCc2c1ccc(Cl)c2Cl	-6%	1.03
CC[C@H](C)Cc1n[nH]c(CCn2nc(C)cc2C)n1	-19%	2.6
O=C(NCC(F)(F)F)[C@H]1CCCN(CCc2ccncc2)C1	5%	-0.96
Cc1nn(-c2ncc(NC(=O)c3ccco3)cn2)c(C)c1C	-11%	1.64
CCOc1ccc(S(=O)(=O)N(C)C)cc1NCc1cc2ccccc2o1	12%	-1.48
CC(C)Cc1ncc2c(n1)CN(c1noc(C(C)C)n1)C2	11%	-1.46
Cc1c(CCC(=O)N[C@@H](C)C2CC2)c(=O)[nH]c2c1c(=O)[nH]n2C	-7%	0.81
Cc1ccccc1OC1CN(C(=O)NC2CCN(C3CCOCC3)CC2)C1	3%	-0.52
C=CCOC[C@@H](O)CN(CCC)Cc1c(-c2ccccc2)noc1N1CCCC1	-2%	0.3
CC(C)(C)OC(=O)N1CCN(c2nnc(NC(=O)c3c(F)cccc3F)[nH]2)CC1	-14%	1.7
Cc1nsc(N2CCC[C@H](CNS(C)(=O)=O)C2)c1C#N	-21%	2.26
O=C(Nc1ccncc1)OC1CCCCC1	34%	-3.83
CCN(CCCNc1nc(C)cc(OC)n1)S(C)(=O)=O	3%	-0.65
O=S(=O)(c1cccc2nsnc12)N1CC(Nc2ncccn2)C1	-20%	2.33
CCN(C[C@H]1CCN(C(=O)Nc2cccc(C)n2)C1)CC(F)(F)F	-10%	1.28
COc1cc(NC(=O)N[C@@H](CO)C(C)(C)C)sn1	-6%	1.32
C[C@H]1CN(C)c2ccccc2CN1C(=O)NCc1ccc(OC(F)F)cn1	1%	-0.1
CN(C)CCN(C)CC[C@H]1CN(C(=O)c2ccc(C(F)(F)F)cc2)CC[C@H]1CC(=O)O	9%	-1
